Experimental findings from a collection of fitness landscapes (doi:10.1016/j.celrep.2020.107928) are described below.

The full ranking holds about 81,000 sequences; the median of “one-hybrid fitness for binding parS DNA” is about -0.17, and the highest 2% start at about 0.51. This is one part of the list.

Sequences and labels used below:
B1: Caulobacter ParB omega fusion; a variant is named by its letters at X, in order, B8GW30 (parent)
chain: MESVVVGEPGMSEGRRGLGRGLSALLGEVDAAPAQAPGEQLGGSREAPIEILQRNPDQPRRTFREEDLEDLSNSIREKGVLQPILVRPSPDTAGEYQIVAGERAWRAAQRAGLKTVPIMVRELDDLAVLEIGIIENVQRADLNVLEEALSYKVLMEKFERTQENIAQTIGKSXSHVANXMRLLXLPDEVQSYLVSGELTAXHARAIAAAADPVALAKQIIEGGLSVRETEALARKAPNLSAGKSKGGRPPRVKDTDTQALESDLSSVLGLDVSIDHRGSTGTLTITYATLEQLDDLCNRLTRGI

The assay covers variants of B1. Nature of the assay: one-hybrid fitness for binding parS DNA (scaled: cognate 1, non-cognate 0); higher = stronger binding. The settings on record: with parS DNA site. The procedure, abridged: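 Caulobacter ParB libraries with four specificity codons randomised were screened by bacterial one-hybrid selection in the E. coli USO strain, using a HIS3 reporter whose site lies 19 bp from the promoter. Selection ran for 48 hours at 37°C on M9 lacking histidine, with 0.1 mM IPTG and 5 mM 3-AT. Plasmids were Illumina-sequenced before and after selection, three replicate libraries were pooled, and variants with under 10 reads were dropped. Fitness is the log change in each variant's read ratio to wild type, rescaled against the cognate and non-cognate sites.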
For CGRK, the “one-hybrid fitness for binding parS DNA” value is no more than 0.2. With NLLS the figure was no more than 0.2; with ENHY, no more than 0.2. Under LVCG stands no more than 0.2. For ATNW, the “one-hybrid fitness for binding parS DNA” value is no more than 0.2. Take NNNI: the “one-hybrid fitness for binding parS DNA” value is no more than 0.2.

Regarding TVYY, the “one-hybrid fitness for binding parS DNA” value was no more than 0.2. Under KVFL stands no more than 0.2; under LLYN, no more than 0.2; under WDHW, no more than 0.2. Take AQIS: the “one-hybrid fitness for binding parS DNA” value is no more than 0.2. As for LVKS, the “one-hybrid fitness for binding parS DNA” value was no more than 0.2. For the variant YKPG, the “one-hybrid fitness for binding parS DNA” value is no more than 0.2. Consider SYIW, for which the “one-hybrid fitness for binding parS DNA” value was no more than 0.2. Turning to QQER, the “one-hybrid fitness for binding parS DNA” value is no more than 0.2. With YRCG, the “one-hybrid fitness for binding parS DNA” value is no more than 0.2. For the variant APYG, the “one-hybrid fitness for binding parS DNA” value is no more than 0.2. With SAAL the figure was no more than 0.2; with RIKY, 0.747. In the case of AQCP, the “one-hybrid fitness for binding parS DNA” value was no more than 0.2.

Take LPAN: the “one-hybrid fitness for binding parS DNA” value is no more than 0.2. Turning to TKWV, the “one-hybrid fitness for binding parS DNA” value was no more than 0.2. In the case of HRDV, the “one-hybrid fitness for binding parS DNA” value was no more than 0.2. Under RHRW stands no more than 0.2; under VSVI, no more than 0.2.

With CNRA, the “one-hybrid fitness for binding parS DNA” value is no more than 0.2.

As to IRST, the “one-hybrid fitness for binding parS DNA” value is no more than 0.2. Turning to QFPV, the “one-hybrid fitness for binding parS DNA” value is no more than 0.2. Consider WTSM, for which the “one-hybrid fitness for binding parS DNA” value is no more than 0.2.

In the case of CFVC, the “one-hybrid fitness for binding parS DNA” value was no more than 0.2. Under HWRF stands no more than 0.2. With VSHI, the “one-hybrid fitness for binding parS DNA” value is no more than 0.2. As for PEFR, the “one-hybrid fitness for binding parS DNA” value was no more than 0.2. Regarding QWYV, the “one-hybrid fitness for binding parS DNA” value is no more than 0.2.

As for APRR, the “one-hybrid fitness for binding parS DNA” value was no more than 0.2.

Regarding TQTN, the “one-hybrid fitness for binding parS DNA” value is no more than 0.2.

Consider VRWS, for which the “one-hybrid fitness for binding parS DNA” value was no more than 0.2.

Consider WTFR, for which the “one-hybrid fitness for binding parS DNA” value was no more than 0.2. With ERIR, the “one-hybrid fitness for binding parS DNA” value was no more than 0.2.

Turning to AQTR, the “one-hybrid fitness for binding parS DNA” value was no more than 0.2. With FSCC the figure was no more than 0.2; with KQTH, no more than 0.2; with RYNT, 0.819.

Consider VTGI, for which the “one-hybrid fitness for binding parS DNA” value was no more than 0.2.

Consider DCLC, for which the “one-hybrid fitness for binding parS DNA” value is no more than 0.2. DYPV: the “one-hybrid fitness for binding parS DNA” value is no more than 0.2. Consider VRKK, for which the “one-hybrid fitness for binding parS DNA” value is no more than 0.2. With MKPK the figure was no more than 0.2; with VYKT, no more than 0.2; with RDMT, no more than 0.2. With RSLK the figure was no more than 0.2. Consider GTKG, for which the “one-hybrid fitness for binding parS DNA” value is no more than 0.2. Consider MAWR, for which the “one-hybrid fitness for binding parS DNA” value was no more than 0.2. As for RPFM, the “one-hybrid fitness for binding parS DNA” value is no more than 0.2. With ILMW the figure was no more than 0.2. As to YILT, the “one-hybrid fitness for binding parS DNA” value was no more than 0.2.

For the variant DSSR, the “one-hybrid fitness for binding parS DNA” value was no more than 0.2. As to AYTD, the “one-hybrid fitness for binding parS DNA” value is no more than 0.2. On to RVRL, for which the “one-hybrid fitness for binding parS DNA” value is no more than 0.2.

On to AQEW, for which the “one-hybrid fitness for binding parS DNA” value is no more than 0.2. With NGNH, the “one-hybrid fitness for binding parS DNA” value was no more than 0.2. For REHM, the “one-hybrid fitness for binding parS DNA” value is no more than 0.2. As to ASVG, the “one-hybrid fitness for binding parS DNA” value was no more than 0.2. In the case of PLLK, the “one-hybrid fitness for binding parS DNA” value was no more than 0.2.

For the variant SRKF, the “one-hybrid fitness for binding parS DNA” value was no more than 0.2. For DMSL, the “one-hybrid fitness for binding parS DNA” value is no more than 0.2.

As to ANSI, the “one-hybrid fitness for binding parS DNA” value is no more than 0.2. As for PLMC, the “one-hybrid fitness for binding parS DNA” value is no more than 0.2. In the case of NPIY, the “one-hybrid fitness for binding parS DNA” value was no more than 0.2.

Regarding SGKE, the “one-hybrid fitness for binding parS DNA” value was no more than 0.2. With WSHS the figure was no more than 0.2; with TSTG, no more than 0.2; with DSMC, no more than 0.2. For RCFN, the “one-hybrid fitness for binding parS DNA” value was found to be 0.43. On to VYTS, for which the “one-hybrid fitness for binding parS DNA” value was no more than 0.2. Under SNTV stands no more than 0.2; under TNVY, 0.235; under MRTT, no more than 0.2. For the variant PRVE, the “one-hybrid fitness for binding parS DNA” value was no more than 0.2.

Regarding AKVE, the “one-hybrid fitness for binding parS DNA” value was no more than 0.2.

As for QRYS, the “one-hybrid fitness for binding parS DNA” value is no more than 0.2.

On to SWKK, for which the “one-hybrid fitness for binding parS DNA” value is no more than 0.2. For STCE, the “one-hybrid fitness for binding parS DNA” value is no more than 0.2. For ASNR, the “one-hybrid fitness for binding parS DNA” value was no more than 0.2.

In the case of DHFS, the “one-hybrid fitness for binding parS DNA” value is no more than 0.2. As to SAKW, the “one-hybrid fitness for binding parS DNA” value is no more than 0.2. In the case of QTTH, the “one-hybrid fitness for binding parS DNA” value is no more than 0.2. With RVFN the figure was 0.399; with WPGR, no more than 0.2; with KNPM, no more than 0.2. Take HYVI: the “one-hybrid fitness for binding parS DNA” value is no more than 0.2. With MRRC the figure was no more than 0.2; with QIKV, no more than 0.2; with EFTA, no more than 0.2. For MPMV, the “one-hybrid fitness for binding parS DNA” value is no more than 0.2. As for QEPH, the “one-hybrid fitness for binding parS DNA” value is no more than 0.2.

For SSLV, the “one-hybrid fitness for binding parS DNA” value was no more than 0.2. On to SGYG, for which the “one-hybrid fitness for binding parS DNA” value was no more than 0.2.

Take ALAI: the “one-hybrid fitness for binding parS DNA” value is no more than 0.2.

As to NTKA, the “one-hybrid fitness for binding parS DNA” value was no more than 0.2. Turning to VVCR, the “one-hybrid fitness for binding parS DNA” value is no more than 0.2. Consider HDNS, for which the “one-hybrid fitness for binding parS DNA” value is no more than 0.2.

For the variant PYMM, the “one-hybrid fitness for binding parS DNA” value is no more than 0.2. As for SNIC, the “one-hybrid fitness for binding parS DNA” value is no more than 0.2. In the case of PDQC, the “one-hybrid fitness for binding parS DNA” value was no more than 0.2. Consider MLGS, for which the “one-hybrid fitness for binding parS DNA” value is no more than 0.2. Consider GPAK, for which the “one-hybrid fitness for binding parS DNA” value is no more than 0.2. With VPSR, the “one-hybrid fitness for binding parS DNA” value is no more than 0.2.

For the variant GIPS, the “one-hybrid fitness for binding parS DNA” value is no more than 0.2. On to SSNE, for which the “one-hybrid fitness for binding parS DNA” value was no more than 0.2.

As for PPFP, the “one-hybrid fitness for binding parS DNA” value is no more than 0.2. As for MKYC, the “one-hybrid fitness for binding parS DNA” value was no more than 0.2.

With TCEM, the “one-hybrid fitness for binding parS DNA” value worked out at 0.286. Regarding RPNV, the “one-hybrid fitness for binding parS DNA” value is no more than 0.2. As for TAKL, the “one-hybrid fitness for binding parS DNA” value is no more than 0.2. For SDKF, the “one-hybrid fitness for binding parS DNA” value was no more than 0.2. With YSNV, the “one-hybrid fitness for binding parS DNA” value is no more than 0.2.

Turning to VADD, the “one-hybrid fitness for binding parS DNA” value was no more than 0.2. As for HMAR, the “one-hybrid fitness for binding parS DNA” value was no more than 0.2. On to NANC, for which the “one-hybrid fitness for binding parS DNA” value was no more than 0.2. Regarding CHIT, the “one-hybrid fitness for binding parS DNA” value is no more than 0.2.

Take LIDS: the “one-hybrid fitness for binding parS DNA” value is no more than 0.2. Turning to RWGY, the “one-hybrid fitness for binding parS DNA” value was 0.269. For QMDM, the “one-hybrid fitness for binding parS DNA” value is no more than 0.2. For the variant RVNL, the “one-hybrid fitness for binding parS DNA” value was no more than 0.2. Under YDTF stands no more than 0.2. Take YYYV: the “one-hybrid fitness for binding parS DNA” value was no more than 0.2. In the case of EHTC, the “one-hybrid fitness for binding parS DNA” value was no more than 0.2. For SYFF, the “one-hybrid fitness for binding parS DNA” value was no more than 0.2. On to KHAG, for which the “one-hybrid fitness for binding parS DNA” value is no more than 0.2. Regarding QWMS, the “one-hybrid fitness for binding parS DNA” value was no more than 0.2. Under AINT stands no more than 0.2; under SSPE, no more than 0.2; under LAWG, no more than 0.2.

Take HEAE: the “one-hybrid fitness for binding parS DNA” value was no more than 0.2.

Take ACVV: the “one-hybrid fitness for binding parS DNA” value is no more than 0.2.

Regarding FFSG, the “one-hybrid fitness for binding parS DNA” value was no more than 0.2. On to YILQ, for which the “one-hybrid fitness for binding parS DNA” value was no more than 0.2. Regarding QLWL, the “one-hybrid fitness for binding parS DNA” value is no more than 0.2. Regarding RGPD, the “one-hybrid fitness for binding parS DNA” value was no more than 0.2. For the variant QLLM, the “one-hybrid fitness for binding parS DNA” value was no more than 0.2. Under VDTR stands no more than 0.2; under HEDV, no more than 0.2; under QHGR, no more than 0.2.

Regarding TAQY, the “one-hybrid fitness for binding parS DNA” value was no more than 0.2. Take HVYD: the “one-hybrid fitness for binding parS DNA” value is no more than 0.2. Regarding ARRK, the “one-hybrid fitness for binding parS DNA” value is no more than 0.2. As for HDWS, the “one-hybrid fitness for binding parS DNA” value was no more than 0.2. Take YWPR: the “one-hybrid fitness for binding parS DNA” value is no more than 0.2. In the case of NCES, the “one-hybrid fitness for binding parS DNA” value is no more than 0.2. With HHLE the figure was no more than 0.2; with PRGS, no more than 0.2; with LRMY, no more than 0.2.
